Values joined by “and” are separate entries in the source; they are usually repeats but may differ in a detail not shown here. Equal values may be shown once. Screen size: about 420,000 compounds; about 64,000 (15%) were called active. The shares of active, inactive and inconclusive entries below differ from those in the screen. Calls come from the whole dose curve; as a rule, active = well fitted inhibition curve with a large enough effect; inconclusive = small, poorly fitted or top-dose-only effect; inactive = flat fitted curve, though single readings scatter. Potencies of inconclusive entries are left out as doubtful fits. More than one record can exist for a structure, and the calls need not agree.
Experiment: qHTS for Inhibitors of human tyrosyl-DNA phosphodiesterase 1 (TDP1): qHTS in cells in absence of CPT; note: nearly all actives have a fitted effect of over 55% in size
Conditions: DT40 Tdp1-/- hTDP1 cells, no CPT, ATP luminescence, 48 h; activity change, negative = growth inhibition: at 46.2 µM (top of the series) unless noted
How it was run: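 Chicken DT40 Tdp1-/- cells complemented with human TDP1, screened without camptothecin (DMSO vehicle only), 400 cells/well. Compounds pin-transferred, cells incubated at 37 °C for at least 48 hr. Growth read as ATP-dependent luminescence (CellTiter-Glo, 30 min at RT).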
% is set by controls: 0 for no effect and ±100 for the full control effect; potency is the fitted concentration of half-maximal effect; tags give direction and shape of the fitted curve.

SMILES | Potency | activity change, negative = growth inhibition
Cc1cc2oc(=O)cc(-c3cc4ccccc4o3)c2cc1OC(=O)N(C)C | inconclusive [inhibitor, full curve] | –
CCN1CCN(S(=O)(=O)c2ccc(Cl)c(C(=O)Nc3ccc(C(=O)N(CC)CC)cc3)c2)CC1 | inconclusive [inhibitor, partial curve] | –
O=C(CF)NC(NC(=S)Nc1ccccc1O)C(Cl)(Cl)Cl (stereo not drawn) | – | inactive: -42.1%
Cc1cccc(-n2nc(C)c(C(=O)N3CCN(c4ccccc4)CC3)c2-n2cccc2)c1 | active: 20.6 µM | –
C=C1[C@@H](OC(C)=O)[C@]23C[C@@H]1[C@@H](OC(C)=O)CC2[C@]12C4C[C@H]3[C@H]1N(CC)C[C@]4(C)CC[C@@H]2O (stereo partly drawn) | – | inactive: -12.8%
CCN(CC)c1ccc(C=C2C(=O)N(C)C(=S)N(C)C2=O)o1 | – | inconclusive: -32.3% [inhibitor]
O=c1[nH]c(=S)n(C2CC2)c(O)c1C=Nc1ccc2c(c1)OCO2 | – | inconclusive: -33.2% [inhibitor]
CCN1C(=O)NC(=O)/C(=C/c2cc(C)n(-c3sc(C)c(C)c3C#N)c2C)C1=O | inconclusive [inhibitor, single point] | –
S=P(Nn1cnnc1)(c1ccc(Br)cc1)c1ccc(Br)cc1 | – | inactive: -21.4%
C=CCC1(CC)C(=O)NC(=S)NC1=O | – | inactive: 0.573%
O=c1[nH]c(=S)[nH]c(O)c1N=Nc1ccc(S(=O)(=O)N2CCOCC2)cc1 | – | inactive: 23%
CN(C)CCN(CC1CCCN(Cc2ccccc2F)C1)C(=O)Cc1ccc(F)c(F)c1 (stereo not drawn) | inconclusive [inhibitor, single point] | –
COc1ccc(C(c2nnnn2-c2ccc3c(c2)OCCO3)N2CCC(n3c(=O)[nH]c4ccccc43)CC2)cc1 (stereo not drawn) | active: 16.4 µM | –
CC1=CC2OC3CC4OC(=O)C=CC=CC(C(C)O)OCC(O)C(C)CC(=O)OCC2(CC1O)C4(C)C31CO1 (stereo not drawn) | active: 0.0206 µM | –
COC(=O)C1=C(c2cccc3c2S(=O)(=O)c2ccccc2-3)C[C@@H]2CC[C@H]1N2C(=O)N1CCc2cc(OC)c(OC)cc2C1 | active: 20.6 µM | –
COc1ccccc1N1CCNCC1 | inactive | –
CC(C(=O)Nc1ccc(Br)cc1C(=O)c1ccccc1)N1CCCCC1 (stereo not drawn) | inconclusive [inhibitor, partial curve, poor fit] | –
Cc1ccsc1CNCCc1ccccc1F | – | inactive: 3.82%
O=C1CN=C(c2ccccc2)c2cc(Br)ccc2N1 | inconclusive [inhibitor, single point] | –
O=Cc1cn(Cc2ccccc2F)c2ccccc12 | active: 14.6 µM | –
Fc1ccccc1CNCCc1c[nH]c2ccccc12 | inconclusive [inhibitor, partial curve] | –
CCN(CC)C(=O)c1ccc(NC(=O)c2cccc(C(F)(F)F)c2)cc1 | inconclusive [inhibitor, partial curve] | –
CC(=O)NCC1=C(c2cccc3ccccc23)C[C@@H]2CC[C@H]1N2Cc1ccco1 | inconclusive [inhibitor, partial curve, poor fit] | –
COc1ccc(CN2Cc3cnnn3-c3ccccc3C2c2ccccc2)cc1 (stereo not drawn) | active: 16.4 µM | –

SMILES | Potency | activity change, negative = growth inhibition
COC(=O)c1sc(NC(=O)/C=C/c2ccc(OC)c(OC)c2)c(C(=O)OC)c1C | inconclusive [inhibitor, partial curve, poor fit] | –
NC(Cc1ccc(C(F)(F)F)cc1)c1csc(Nc2nncc3ccccc23)n1 (stereo not drawn) | active: 20.6 µM | –
COC(=O)c1c(C)n(Cc2ccco2)c2ccc(O)cc12 | inconclusive [inhibitor, single point] | –
Cn1cc(C(=O)OCC(=O)NC2CCCCC2)c2ccccc21 | – | inactive: -15.8%
O=C1C2CCCN2C(c2cccnc2)N1c1nccs1 (stereo not drawn) | – | inactive: 6.14%
COc1ccc(CN2Cc3cc(-c4cccc(F)c4)ccc3-n3nncc3C2)cc1 | inconclusive [inhibitor, single point] | –
CC(=O)[C@H]1CC[C@H]2[C@@H]3CC[C@H]4C[C@H](O)CC[C@]4(C)[C@H]3C(=O)C[C@]12C | active: 11.9 µM | –
CCN(CC)CCSc1nc2ccccc2c(=O)n1-c1ccc(Cl)cc1 | active: 20.6 µM | –
COC(=O)C1=C(c2ccc(C(C)=O)cc2)C[C@@H]2CC[C@H]1N2C(=O)NCCCOC(C)C | – | inactive: -1.62%
Cc1cc(OCC(=O)NCc2ccncc2)c2c3c(c(=O)oc2c1)CCCC3 | inconclusive [inhibitor, partial curve] | –
CC1CC2CC(=O)C3CCCN4CCCC2[C@]34C1 (stereo partly drawn) | – | inactive: -2.27%
CN(C)C(CNC(=O)Cc1ccc(Br)cc1)c1ccccc1 (stereo not drawn) | – | inactive: -21.9%
CNCCC(Oc1ccc(C(F)(F)F)cc1)c1ccccc1 (stereo not drawn) | active: 11.9 µM and active: 16.4 µM and active: 25.9 µM | –
Cc1cc(C(=O)O)c(C)n1C1CC1 | – | inactive: 2.46%
Cc1nc2n(c(=O)c1CCN1CCC(c3noc4cc(F)ccc34)CC1)CCCC2 | inconclusive [inhibitor, single point] | inconclusive: -33.2% [inhibitor]
Oc1cc(O)cc(/C=C/c2ccc(O)cc2O)c1 | inconclusive [inhibitor, single point] | –
CN1CCN(c2ccc3c(c2)S(=O)(=O)c2ccccc2C3=O)CC1 | inconclusive [inhibitor, single point] | –
C[C@]12CCC(=O)C=C1CCC1C2CC[C@@]2(C)C1CC[C@]2(C)O (stereo partly drawn) | inconclusive [inhibitor, partial curve] | –
CN(C)c1ccc(C(=O)N/N=C/C23CC[C@@H](O)CC2(O)CC[C@@H]2[C@@H]3CCC3(C)C(C4=CC(=O)OC4)CCC23O)cc1 (stereo partly drawn) | – | inactive: 4.63%
O=C(c1cc2cc(F)ccc2[nH]1)N1CCC2(CC1)OCCO2 | inconclusive [inhibitor, full curve, poor fit] | –
CCOc1cc2[nH]c(=O)n(CCCCC(=O)N3CCN(c4cccc(Cl)c4)CC3)c(=O)c2cc1OCC | active: 5.17 µM | –
COc1ccc(Nc2nc(N3CCN(C)CC3)nc3ccccc23)c(OC)c1 | inconclusive [inhibitor, single point] | –
O=C(OCCN1CCOCC1)C1(c2ccccc2)CCCC1 | inconclusive [inhibitor, single point] | –
CC(C)N1CCN(c2ccc(O)cc2)CC1 | inconclusive [inhibitor, single point] | –

SMILES | Potency | activity change, negative = growth inhibition
CCc1ccc(N2C(=O)NC(=O)/C(=C/c3cccn3CCOc3ccc(C(C)CC)cc3)C2=O)cc1 (stereo not drawn) | active: 14.6 µM | –
COc1ccc(-c2ccc3c(c2)CN(CC(C)C)Cc2cnnn2-3)cc1 | inconclusive [inhibitor, single point] | –
COc1cccc(NC(=O)Cn2cc(C(=O)c3ccccc3)c3ccccc32)c1 | inconclusive [inhibitor, single point] | –
CCCOc1ccc(C2SCC(=O)Nc3c2c(C)nn3-c2cccc(C)c2)cc1OC (stereo not drawn) | active: 20.6 µM | –
Cc1ccccc1CC(=O)N(CCN(C)C)CC1CCCN(Cc2ccccc2F)C1 (stereo not drawn) | inconclusive [inhibitor, single point] | –
COC(=O)C1=C(c2ccc3ccccc3c2)C[C@@H]2CC[C@H]1N2C(=O)NCCCOC(C)C | active: 14.6 µM | –
CCCNC(=O)c1cnn2c(C)c(Cc3c(C)cc(C)cc3C)c(C)nc12 | active: 1.84 µM | –
C[C@H]1CNCCc2ccc(Cl)cc21 | – | inactive: -11.9%
COc1ccc(-c2nc(CSCC(=O)N3CCN(c4ccc(F)cc4)CC3)c(C)o2)cc1 | active: 8.2 µM | –
O=Cc1c(C(=O)O)n(Cc2ccccc2Cl)c2ccccc12 | – | inactive: 16.7%
C=CCn1c(O)c(C(C)=NCCC(c2ccccc2)c2ccccc2)c(=O)[nH]c1=O | active: 16.4 µM | –
O=[N+]([O-])c1ccc(N2CCNCC2)cc1N1CCCCC1 | inconclusive [inhibitor, full curve, poor fit] | –
CNC(=O)Oc1cc2c(cc1C(C)(C)C)CCC2 | active: 16.4 µM | –
C/C=C(\C)C(=O)N[C@@H](c1ccccc1)[C@@H](O)C(=O)O[C@H]1C[C@@]2(O)[C@@H](OC(=O)c3ccccc3)C3[C@](C)(C(=O)[C@H](OC(C)=O)C(=C1C)C2(C)C)[C@H](O)C[C@H]1OC[C@@]31OC(C)=O (stereo partly drawn) | active: 0.164 µM | –
CN=C(SCc1ccccc1)c1c(O)n(C)c(=O)n(C)c1=O | – | inactive: 0.109%
Cc1ccc(N(C)C(=O)Oc2ccc(C(=O)c3ccc(Cl)cc3)cc2)cc1 | inconclusive [inhibitor, single point] | –
COC(=O)C(C)NC(=S)N1CC2C[C@@H](C1)Cn1c2cccc1=O (stereo partly drawn) | – | inactive: 10.4%
CCc1ccc([C@H]2[C@@H]3C(=O)C[C@@H]4C(=O)N(C5CCCCC5)C(=O)[C@@H]4[C@@H]3CN2S(=O)(=O)c2ccc(C)cc2)cc1 | inconclusive [inhibitor, partial curve] | –
O=C(COC(=O)Cc1ccccc1)NCCNC(=O)COC(=O)Cc1ccccc1 | – | inactive: 10%
CC(=O)O/C(=C1\CC2C3CC=C4CC(OC(C)=O)CCC4(C)C3CCC2(C)C1=O)C(F)(F)F (stereo not drawn) | active: 3.66 µM | –
Cc1ccc(C2N(c3cc(C)on3)C(=O)C3CCCN32)cc1 (stereo not drawn) | – | inactive: -1.69%
NC(=O)c1ccc(NC(=O)COC(=O)C2(c3ccccc3F)CCCC2)cc1 | inconclusive [inhibitor, single point] | –
O=C1C2CCCN2C(c2cccnc2)N1c1cccc(Cl)c1 (stereo not drawn) | – | inconclusive: -12.4% [inhibitor]
CCOC(=O)CC1c2ccccc2-n2nncc2CN1Cc1ccc(OC)cc1 (stereo not drawn) | inconclusive [inhibitor, single point] | –

Reference: PubChem BioAssay AID686978 (National Center for Advancing Translational Sciences (NCATS), 2013)
